# The whole screen tested about 310,000 compounds, of which about 14,000 (4.5%) showed an effect of 50% or more. The effect is printed as a negative number. The list shows a part of the results.
# Biological target: human ether-à-go-go-related gene (hERG) potassium channel (human, UniProt Q12809)
# Experiment: primary screen, population patch clamp on CHO cells stably expressing hERG
# 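Note: peak tail current of the secondary pulse compared with the same well before compound.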
# Sequence of human ether-à-go-go-related gene (hERG) potassium channel (Q12809 whole entry, looked up): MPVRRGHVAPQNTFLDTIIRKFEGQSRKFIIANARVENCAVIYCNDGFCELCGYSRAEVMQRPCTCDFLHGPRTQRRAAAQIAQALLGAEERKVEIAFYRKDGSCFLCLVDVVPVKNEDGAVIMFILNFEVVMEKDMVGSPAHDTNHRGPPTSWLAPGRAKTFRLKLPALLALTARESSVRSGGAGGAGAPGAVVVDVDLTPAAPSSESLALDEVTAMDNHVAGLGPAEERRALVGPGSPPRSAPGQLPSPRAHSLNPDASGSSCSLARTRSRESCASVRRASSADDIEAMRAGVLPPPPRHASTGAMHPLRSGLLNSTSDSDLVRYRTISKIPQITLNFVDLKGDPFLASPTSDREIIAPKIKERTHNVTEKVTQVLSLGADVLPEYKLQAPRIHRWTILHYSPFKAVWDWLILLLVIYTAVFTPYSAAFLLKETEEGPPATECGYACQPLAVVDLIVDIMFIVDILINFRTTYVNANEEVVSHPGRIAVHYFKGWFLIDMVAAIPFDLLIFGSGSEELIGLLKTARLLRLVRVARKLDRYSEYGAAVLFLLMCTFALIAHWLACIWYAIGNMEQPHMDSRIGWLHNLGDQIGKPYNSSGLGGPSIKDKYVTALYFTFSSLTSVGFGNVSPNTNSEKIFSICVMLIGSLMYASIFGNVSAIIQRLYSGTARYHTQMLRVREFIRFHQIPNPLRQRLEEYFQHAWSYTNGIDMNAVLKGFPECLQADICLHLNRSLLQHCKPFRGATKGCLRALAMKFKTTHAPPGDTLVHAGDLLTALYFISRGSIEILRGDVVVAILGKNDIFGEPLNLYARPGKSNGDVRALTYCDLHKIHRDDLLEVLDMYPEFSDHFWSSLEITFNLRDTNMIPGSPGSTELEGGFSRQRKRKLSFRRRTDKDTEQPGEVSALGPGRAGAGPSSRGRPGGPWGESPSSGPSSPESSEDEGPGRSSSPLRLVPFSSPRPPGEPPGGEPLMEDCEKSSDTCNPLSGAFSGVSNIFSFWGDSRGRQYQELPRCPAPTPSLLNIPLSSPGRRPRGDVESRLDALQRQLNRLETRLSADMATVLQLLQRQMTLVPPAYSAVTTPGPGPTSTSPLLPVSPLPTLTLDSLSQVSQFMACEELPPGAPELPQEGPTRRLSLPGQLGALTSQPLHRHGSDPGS
row,SMILES,"hERG current change (%, negative = inhibition) at 10uM [%]"
1,Cc1ccc(S(=O)(=O)N2CCN(C(=O)COC(=O)c3cccc(Cl)c3)CC2)c(C)c1,2.65
2,COc1cccc(CNCc2cccc(Br)c2)c1OC.O=C(O)C(=O)O,-0.446
3,CCN1C(C)=C(C)S/C1=C1\SC(=S)N(C2CCCCC2)C1=O,-1.22
4,Cc1ccc2[nH]c3c(c2c1)CN(C(=O)CN1CCN(c2ccccn2)CC1)CC3,-49.1
5,Cc1ccc(S(=O)(=O)N/N=C/c2ccc(OCC(=O)Nc3ccccc3Cl)cc2)cc1,1.73
6,COc1ccc(N2C(=O)/C(=C/c3ccc(OC)c(OC)c3)C(=O)NC2=S)cc1,14.7
7,COc1ccccc1N1CCN(Cc2ccco2)CC1.O=C(O)C(=O)O,-26.4
8,COc1cc(C)ccc1OCc1cc(C(=O)NCc2ccncc2)no1,3.47
9,COc1ccc2cc(Br)ccc2c1CC(=O)NCC1CCCO1 (centres unmarked),-0.0184
10,CCc1ccc(C(=O)c2cnc3ccc(OC)cc3c2N2CCN(CC)CC2)cc1,-67.7
11,Cc1cccc(C(=O)N2CCc3ccccc3C2)c1[N+](=O)[O-],-0.48
12,CCCCn1c2c(c(=N)c3c1CCC3)CCC2.I,-2.48
13,COc1ccc(C(=O)N2CCCCC2)cc1S(=O)(=O)Nc1cccc(C(=O)O)c1,6.94
14,Cc1ccc(SCC(=O)Nc2ccc(N3CCN(c4ccccc4)CC3)c(F)c2)cc1,10.3
15,COc1cc(/C=C/C(=O)OCC(=O)N(C)Cc2ccccc2)ccc1O,10
16,COc1ccc(-c2nc(CS(=O)(=O)CC(=O)NCCc3ccc(C)cc3)c(C)o2)cc1,3.98
17,Cc1sc2ncnc(Nc3ccccc3)c2c1C,2.79
18,Cc1nc2c(C(=O)NCCC3=CCCCC3)c[nH]n2c(=O)c1Cl,9.25
19,COc1ccc(OCc2nnc(SCC(=O)Nc3cccc(Cl)c3)o2)cc1,10.8
20,CC(Oc1cccc([N+](=O)[O-])c1)C(=O)NCCC1=CCCCC1 (centres unmarked),-25.8
21,O=C(c1ccc(F)cc1)N1CCC(C(=O)N2CCN(Cc3ccc4c(c3)OCO4)CC2)CC1,-10.5
22,Cc1cc(C(=O)CSc2nnnn2-c2ccc(O)cc2)c(C)n1Cc1ccc2c(c1)OCO2,-6.93

row,SMILES,"hERG current change (%, negative = inhibition) at 10uM [%]"
1,S=C(Nc1cccnc1)N1CCN(c2ccccc2Cl)CC1,0.024
2,CSc1nnc(CNC(=O)c2ccccc2)n1-c1cccc(C)c1,-6.07
3,Cc1ccc(NC(=O)COC(=O)/C=C/c2cccc(Cl)c2)cc1S(=O)(=O)N1CCOCC1,7.37
4,O=C(CCn1cnc2ccccc2c1=O)Nc1nc(-c2ccc(Br)cc2)cs1,11.3
5,O=C(COc1ncnc2c(Cl)cc(Cl)cc12)NCCC1=CCCCC1,12.4
6,CC1CC(=O)NN=C1c1ccc(N)c([N+](=O)[O-])c1 (centres unmarked),1.43
7,Cc1ccc2cc(C=C(C#N)C#N)c(Cl)nc2c1,-0.312
8,Cn1c(=O)c2c(nc(NCc3ccc4c(c3)OCO4)n2Cc2ccccc2F)n(C)c1=O,-8.84
9,CCOC(=O)N1CCN(c2nnc(-c3ccc(C)cc3)c3ccccc23)CC1,-70.1
10,Cc1ccc(-c2nnc(SCC(=O)NC3CCS(=O)(=O)C3)nc2-c2ccc(C)cc2)cc1 (centres unmarked),7.47
11,Cc1[nH]c(C)c(S(=O)(=O)N2CCCCC2)c1C(=O)N1CCCC1,12
12,COc1cccc(CN2CCNC(=O)C2CC(=O)NC2Cc3ccccc3C2)c1 (centres unmarked),-20.8
13,COc1cc(C(=O)Nc2c(C)cc(C)cc2C)c(-n2cnnn2)cc1OC,-14.8
14,CCCC(C(=O)Nc1cc(S(=O)(=O)N2CCOCC2)ccc1OC)c1ccccc1 (centres unmarked),21.9
15,COc1ccc(-n2c(=O)c3c4c(sc3n3c(=S)[nH]nc23)CCCC4)cc1,8.97
16,COc1ccc(-c2noc(CSc3nc(N)cc(=O)[nH]3)n2)cc1,0.145
17,Cc1nc([N+](=O)[O-])c(Sc2nc3ccc([N+](=O)[O-])cc3[nH]2)n1Cc1ccccc1,-48
18,O=C1c2ccccc2C(=O)N1CCOc1cccc(Br)c1,15.9
19,CCc1ccc(CN(C(=O)c2cccs2)C2CCS(=O)(=O)C2)cc1 (centres unmarked),-39.4
20,CC(C)N1C(=O)NC2(c3ccccc3)N(C)C(=O)N(C)C12c1ccccc1 (centres unmarked),-6.16
21,CC(=O)Oc1ccc(C(=O)Nc2cccc(C(=O)NC(C)(C)C)c2)cc1,23.4
22,CCOC(=O)C1CCN(C(=O)Cc2ccc(OC)c(OC)c2)CC1,-1.71

row,SMILES,"hERG current change (%, negative = inhibition) at 10uM [%]"
1,COc1ccc(F)cc1C(=O)C1CCCN(C(=O)CCN2CCCCO2)C1 (centres unmarked),5.56
2,CC1CCc2[nH]c3ccc(C(=O)N(C)CC(=O)Nc4ccc(F)cc4)cc3c2C1 (centres unmarked),-2.52
3,Cc1ccccc1NC(=O)c1ccc(CN2CCc3ccccc3C2)cc1,-16.4
4,Cc1ccccc1Cn1c(=O)n(CC2CCC(C(=O)NCCc3ccccc3)CC2)c(=O)c2ccccc21 (centres unmarked),8.83
5,O=C(NCCc1ccccc1)C1CCN(S(=O)(=O)c2ccc(-c3nn[nH]n3)cc2)CC1,-18.7
6,CN1CCN(C(=O)c2ccc(CNS(=O)(=O)c3cccc(Cl)c3)cc2)CC1,-17.1
7,O=C(Cc1ccccc1[N+](=O)[O-])NC1CC1,11.3
8,O=C(OCc1ccccc1)/C(=C/c1ccc(Cl)cc1)NC(=O)c1ccccc1Cl,5.56
9,O=C(NCCc1ccc(Cl)cc1)c1cc(S(=O)(=O)N2CCCCC2)c[nH]1,1.19
10,COC(=O)c1ccc2c(=O)n(CCCCCC(=O)NCc3ccccc3)c(=O)[nH]c2c1,-6.33
11,COc1ccc(CNC(=O)C2CSC(=O)C2)cc1 (centres unmarked),1.15
12,O=C1CC(C(=O)O)(c2ccccc2)c2cccc(F)c21 (centres unmarked),-2.44
13,CCc1cc(C(=O)NC2CCCN(Cc3ccccc3F)C2)n(C)n1 (centres unmarked),-11.6
14,Cc1cc(C)n2c(SCC(=O)Nc3ncc(C(F)(F)F)cc3Cl)nnc2n1,-17.1
15,NS(=O)(=O)c1ccc(N/N=C/c2ccccc2Br)cc1,30.4
16,O=C(CN1C(=O)c2ccccc2C1=O)NN1C(=O)c2ccccc2C1=O,1.18
17,N=c1c(S(=O)(=O)c2ccc(Cl)cc2)cc2c(=O)n3ccccc3nc2n1Cc1cccnc1,-35.5
18,Nc1nc(-c2ccc3ccccc3c2)cs1,1.6
19,Cc1ccc(S(=O)(=O)n2nc(C)cc2C)cc1,13.5
20,CCCCn1c(-c2ccco2)nc2ccccc2c1=O,-12.2
21,O=C(Nc1ccc(Cl)c(Cl)c1)OCc1cccnc1,19.7
22,NC12NC(=O)C3(O)C4C5CC(C6C5C3C61)C42 (centres unmarked),13.5

row,SMILES,"hERG current change (%, negative = inhibition) at 10uM [%]"
1,CC(c1ccccc1)N1CC(C(=O)N2CCN(c3ccc(F)cc3)CC2)CC1=O (centres unmarked),-65.3
2,COc1ccc(CCNC(=O)c2cc(-c3ccccn3)nc3ccccc23)cc1,-31
3,N#Cc1c(N2CCCC2)ccc(Br)c1Cl,9.09
4,Cc1cccc(NC(=O)C2CCN(C(=O)N3CCOc4ccccc43)CC2)c1C,3.61
5,O=C1C2C3C=CC(CO)(O3)C2C(=O)N1c1ccc(-c2ccccc2)cc1 (centres unmarked),-2.64
6,O=C(CSc1nnc(SCc2cccc3ccccc23)s1)N/N=C/c1c[nH]c2ccccc12,-6.02
7,CC(C)NC(=O)[C@H](CSCc1ccccc1)N1Cc2ccccc2C1=O,-40
8,CC(C)(C)C(=O)NNC(=O)c1cc(C(C)(C)C)nn1Cc1ccccc1,-0.263
9,Cc1ccc(OCc2nnc(SCC(=O)N3C(C)CCCC3C)o2)cc1 (centres unmarked),5.56
10,COc1ccc(C(C(=O)NCc2ccccc2)N(C(=O)c2snc(C(N)=O)c2N)C2CCCC2)cc1O (centres unmarked),-39.5
11,C(=N\N(Cc1ccccc1)c1ccccc1)/c1cccnc1,7.86
12,O=C(OCC(=O)N(C1CCCCC1)C1CCCCC1)c1ccco1,6.95
13,Cc1cc(C)n2nc(C(=O)Nc3cccnc3)nc2n1,-14.1
14,CCOc1ccc(N2C(N)=NC(N)=NC2(C)C)cc1.Cl,-4.18
15,Cc1[nH]c(-c2ccc(F)cc2)cc1C(=O)N1CCN(c2ccc(Cl)cc2)CC1,-13.4
16,O=C1CN(C(=O)NCC(=O)N2CCCC2)c2ccccc2N1,20.4
17,CCN(CC#CCC(O)(c1ccccc1)c1ccccc1)C(C)C.Cl,-19.5
18,Cc1ccc(/C=C/C(=O)Nc2ccc(S(N)(=O)=O)cc2)o1,26
19,Cc1ccc(NS(=O)(=O)c2cc([N+](=O)[O-])ccc2NNC(=S)Nc2cccc(Cl)c2)c(C)c1,26
20,CCN1C(=O)CC(N2CCN(c3ccc(C(=O)c4ccncc4)cc3)CC2)C1=O (centres unmarked),-12.3

# Source: paper PMC4336329 (PLoS ONE, 2015)
